Data as given in PubChem BioAssay AID504332 (National Center for Advancing Translational Sciences (NCATS), 2011).
In all, about 350,000 compounds went through this assay and about 31,000 (8.9%) were called active. Inconclusive results, whose numbers are uncertain, are shown with a selection of clear calls. Calls follow the shape of the dose curve; as a rule, active = well fitted inhibition curve with a large enough effect; inconclusive = small, poorly fitted or top-dose-only effect; inactive = no such curve, though single readings can be large or run the other way. Potencies of inconclusive entries are doubtful fits and often do not repeat.

target: Histone-lysine N-methyltransferase EHMT2 (Homo sapiens) (UniProt Q96KQ7); assay: qHTS Assay for Inhibitors of Histone Lysine Methyltransferase G9a; settings: G9a H3K9 monomethylation, AlphaScreen, 2 h; activity, negative = inhibition: at 59 µM (top of the series) unless noted; also: nearly all actives have a fitted effect of over 75% in size
Procedure, shortened: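 Signal arises when biotinylated H3K9 peptide, once monomethylated, bridges streptavidin donor and antibody-captured acceptor beads. Enzyme at 20 nM was preincubated 15 min with test compounds; peptide 500 nM and SAM 20 uM then reacted for 2 h.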
% is scaled to controls: 0 for no effect and ±100 for the full control effect; potency is read from the fitted curve at half-maximal effect; tags tell the direction and shape of the fitted curve.

Chain of UniProt Q96KQ7 (Q96KQ7 whole entry, looked up): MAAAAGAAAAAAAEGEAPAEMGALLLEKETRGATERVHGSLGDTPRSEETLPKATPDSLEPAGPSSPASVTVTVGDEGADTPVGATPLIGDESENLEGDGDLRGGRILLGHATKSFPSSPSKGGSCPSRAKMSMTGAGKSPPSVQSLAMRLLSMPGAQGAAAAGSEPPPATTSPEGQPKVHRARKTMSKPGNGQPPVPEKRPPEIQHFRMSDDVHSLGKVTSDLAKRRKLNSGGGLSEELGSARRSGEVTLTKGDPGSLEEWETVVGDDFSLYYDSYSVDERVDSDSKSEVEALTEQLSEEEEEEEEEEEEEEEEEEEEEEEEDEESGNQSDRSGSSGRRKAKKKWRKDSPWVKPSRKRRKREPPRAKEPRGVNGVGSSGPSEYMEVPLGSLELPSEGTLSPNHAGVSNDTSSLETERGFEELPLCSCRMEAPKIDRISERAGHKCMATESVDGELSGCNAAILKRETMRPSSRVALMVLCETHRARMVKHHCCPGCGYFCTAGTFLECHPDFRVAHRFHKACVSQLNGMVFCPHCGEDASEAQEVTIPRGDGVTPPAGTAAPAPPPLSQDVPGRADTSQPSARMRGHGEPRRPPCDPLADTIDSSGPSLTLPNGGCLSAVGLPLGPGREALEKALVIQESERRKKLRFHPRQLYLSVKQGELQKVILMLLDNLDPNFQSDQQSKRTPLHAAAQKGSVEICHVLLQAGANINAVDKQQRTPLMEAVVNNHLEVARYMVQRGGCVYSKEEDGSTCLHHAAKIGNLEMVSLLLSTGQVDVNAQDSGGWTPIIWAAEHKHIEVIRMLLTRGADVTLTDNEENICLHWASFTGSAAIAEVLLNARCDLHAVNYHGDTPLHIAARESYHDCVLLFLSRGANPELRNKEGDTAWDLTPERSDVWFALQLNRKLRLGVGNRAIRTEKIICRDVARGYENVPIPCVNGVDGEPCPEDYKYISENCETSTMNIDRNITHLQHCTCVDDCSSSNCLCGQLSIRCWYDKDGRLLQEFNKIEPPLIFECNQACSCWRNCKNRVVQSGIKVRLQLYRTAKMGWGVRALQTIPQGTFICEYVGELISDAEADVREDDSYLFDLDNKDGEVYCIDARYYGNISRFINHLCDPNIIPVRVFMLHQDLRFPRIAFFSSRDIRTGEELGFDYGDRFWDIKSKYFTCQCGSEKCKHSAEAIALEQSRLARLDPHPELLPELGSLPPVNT

SMILES	Potency	activity, negative = inhibition
CCc1ccc(NC(=O)c2ccc3c(c2)N(Cc2ccc(C)cc2)CCS3)cc1	inactive	–
CN(C[C@H](Cc1ccccc1)N(C[C@H](Cc1ccccc1)N(CCC(C)(C)C)N=O)N=O)N=O	–	inactive: 1.98% [at 12.7 µM]
Clc1ccc(-c2nnc3cccc(Cl)n23)c(Cl)c1	inconclusive: 89.1 µM [inhibitor, partial curve, poor fit]	–
CCn1c(SCC(=O)Nc2ccc(C)cc2Br)nnc1-c1nonc1NC(C)=O	inactive	–
Cc1cc(OCC(=O)OCC(=O)NCc2ccc3c(c2)OCO3)ccc1Cl	inconclusive: 1.12 µM [inhibitor, full curve]	–
CC(C)C(=O)Nc1ccc(C(=O)NNC(=O)CCCOc2ccc(Cl)cc2Cl)cc1	inactive	–
Cn1ccnc1SCC(=O)c1cccc(Br)c1	inconclusive: 8.91 µM [inhibitor, partial curve, poor fit]	–
Cc1cc(C)cc(N(CC(=O)N2CCN(c3ccccc3)CC2)S(=O)(=O)c2c(C)noc2C)c1	inconclusive: 11.2 µM [inhibitor, partial curve, poor fit]	–
COc1ccc2c(c1)Cc1sc(NC(=O)c3ccccc3Br)nc1-2	active: 25.1 µM	–
CCOC(=O)c1c(/N=C/N(C)C)sc(/C=N/Nc2ccccc2)c1-c1ccc(Cl)cc1	inconclusive: 39.8 µM [inhibitor, single point]	–
CC(=O)Oc1ccc(/C=C2/C(=O)N(c3ccccc3)N=C2C)cc1	inconclusive: 79.4 µM [inhibitor, single point]	–
CCC1(c2ccccc2)NC(=S)N(c2cccc(C)c2C)N1 (configuration not stated)	active: 31.6 µM	–
CCN1CCc2c(sc(NC(=O)c3ccc(C(=O)c4ccccc4)cc3)c2C(N)=O)C1	active: 70.8 µM	–
CCOc1ccc(-c2csc(NC(=O)c3ccco3)n2)cc1	active: 39.8 µM	–
Nc1ccc(-c2nc3ccccc3s2)cn1	inconclusive: 89.1 µM [inhibitor, single point]	–
CCOC(=O)CCC(=O)Nc1ccc(S(=O)(=O)N2CCCC2)cc1	inconclusive: 50.1 µM [inhibitor, partial curve, poor fit]	–
O=C(c1ccc(COc2ccccc2Br)cc1)N1CCCCCC1	–	inactive: 42.3% [at 12.7 µM]
O=c1[nH]nc(Cc2ccc(-c3ccc(Cl)cc3)o2)c2ccccc12	inconclusive: 2 µM [inhibitor, partial curve, poor fit]	–
CC1(C)Cc2c(cnn2-c2ccc(F)cc2)C(NC(=O)c2ccc(=O)oc2)C1 (configuration not stated)	inconclusive: 79.4 µM [inhibitor, single point]	–
CCCN1CCc2nc(N3CCN(CC)CC3)ncc2C1	inconclusive: 39.8 µM [inhibitor, single point]	–
Cc1ccc2nc(NC(=O)c3ccc(-c4nc5ccccc5s4)s3)sc2c1	inconclusive: 89.1 µM [inhibitor, single point]	–
Cc1ccc(C)c(N2CCN(C(=O)c3ccc(CS(=O)Cc4cccc(Cl)c4)o3)CC2)c1 (configuration not stated)	inconclusive: 89.1 µM [inhibitor, single point]	–
CC1(C)CC(=O)/C(=C\c2cccc([N+](=O)[O-])c2)C(C)(C)N1	inconclusive: 22.4 µM [inhibitor, partial curve, poor fit]	–

SMILES	Potency	activity, negative = inhibition
Cc1cc(C)c(C#N)c(SCc2ccccc2)n1	inconclusive: 17.8 µM [inhibitor, single point]	–
Cc1ccc(C)c(OCC(=O)OCC(=O)Nc2c(C)nn(-c3ccccc3)c2C)c1	inconclusive: 50.1 µM [inhibitor, partial curve, poor fit]	–
N#Cc1cc2c(nc1SCC(O)CS(=O)(=O)Cc1ccc(Cl)cc1)CCCC2 (configuration not stated)	inconclusive: 79.4 µM [inhibitor, partial curve, poor fit]	–
CCOc1ccc(NC(=O)CN(C)c2ccc(S(=O)(=O)N3CCOCC3)cn2)cc1OCC	–	inactive: 4.82% [at 12.7 µM]
C=CCNC(=O)CN(c1ccc(F)cc1)S(=O)(=O)c1ccc(OC)cc1	inconclusive: 70.8 µM [inhibitor, partial curve, poor fit]	–
Cc1ccc(Nc2nnc(SCC(=O)N(C)C3CCS(=O)(=O)C3)s2)cc1 (configuration not stated)	inconclusive: 44.7 µM [inhibitor, partial curve, poor fit]	–
O=C(Nc1cc(S(=O)(=O)N2CCCCC2)ccc1N1CCOCC1)c1ccc(C(F)(F)F)cc1	inconclusive: 35.5 µM [inhibitor, single point]	–
NC(=O)c1ccsc1NC(=O)COC(=O)Cc1ccccc1Cl	–	inactive: 23.8% [at 12.7 µM]
CCOc1cc(S(=O)(=O)NCCc2cccc(C)c2)c(OCC)cc1-n1cnnn1	inconclusive: 1.12 µM [inhibitor, full curve, poor fit]	–
CC(=O)c1ccc(NC(=O)Cn2cnc(S(=O)(=O)N3CCOCC3)c2)cc1	inactive	–
COc1cccc(C2=CC(c3ccc(OC)c(OC)c3OC)n3nnnc3N2)c1 (configuration not stated)	inconclusive: 1.58 µM [inhibitor, full curve, poor fit]	–
CCOc1cccc(C(=O)Nc2c(C(=O)c3ccc(OC)cc3)oc3ccccc23)c1	inactive	–
O=C(CCc1ccc(S(=O)(=O)NC2CCCCC2)cc1)NCc1ccccc1	inconclusive: 28.2 µM [inhibitor, single point]	–
Cc1cccc(-n2c(C)cc(C=C3C(=O)c4ccccc4C3=O)c2C)c1	inconclusive: 28.2 µM [inhibitor, single point]	–
COc1ccc(OC)c(NC(=O)/C=C/c2ccc(S(=O)(=O)N3CCOCC3)cc2)c1	active: 50.1 µM	–
CCn1c2ccc(F)cc2c2nnc(SCCN3CCOCC3)nc21	active: 44.7 µM	–
Cc1ccsc1C(=O)N(Cc1nnc(-c2ccccc2Cl)o1)C1CC1	inconclusive: 89.1 µM [inhibitor, single point]	–
COc1ccccc1-n1cc(-c2ccc(C)cc2)[nH]c1=S	inconclusive: 0.316 µM [inhibitor, full curve]	–
CCC(C(=O)Nc1ccsc1C(=O)OC)c1ccccc1 (configuration not stated)	inactive	–
CCOC(=O)C1CCCN(C(=O)CSc2nc(C)cc(C)n2)C1 (configuration not stated)	inactive	–
CN(C)S(=O)(=O)c1cccc(NC(=O)c2cc(=O)[nH]c(=O)[nH]2)c1	active: 1.12 µM	–
Cc1cccc(N(C(=O)c2snc(C(N)=O)c2N)C(C(=O)NCC2CCCO2)c2ccc(N(C)C)cc2)c1C (configuration not stated)	active: 50.1 µM	–
[O-]/C(=C(\C(=S)NCc1ccco1)[n+]1ccccc1)c1ccccc1Br	–	inconclusive: -59.4% [inhibitor]

SMILES	Potency	activity, negative = inhibition
Cc1nc2ccn(Cc3cccs3)c(=O)c2cc1C(=O)N1CCN(c2ccc(F)cc2)CC1	inactive	–
Cc1ccc(NC(=O)c2sc(-n3nc(C)c(CCC(C)C)c3C)nc2C)cc1C	inconclusive: 35.5 µM [inhibitor, single point]	–
COc1ccc(-c2ccc(C(=O)O)c(=O)[nH]2)cc1	inconclusive: 79.4 µM [inhibitor, single point]	–
C[C@H]1C=C(C(=O)NCc2ccccc2)O[C@@H](OCc2ccc(CO)cc2)C1	–	inconclusive: -91.3% [inhibitor]
Cc1ccc(C)c(S(=O)(=O)N2CCN(CC(=O)Nc3cc(C)on3)CC2)c1	inconclusive: 89.1 µM [inhibitor, single point]	–
Cc1cnc(C(=O)Nc2ccccc2-c2ccc(C)o2)cn1	inconclusive: 22.4 µM [inhibitor, full curve, poor fit]	–
CCc1cc2ccc(OC)cc2nc1SCC(=O)NNC(=O)c1ccco1	active: 50.1 µM	–
Cc1nnc(SCC(=O)Nc2ccc3[nH]c(=O)[nH]c3c2)s1	inconclusive: 70.8 µM [inhibitor, single point]	–
CSc1ccccc1NC(=O)CSCc1nc2sc(C)c(C)c2c(=O)[nH]1	inconclusive: 89.1 µM [inhibitor, single point]	–
CC1CCCC(NC(=O)C2CCN(S(=O)(=O)N3CCCCCC3)CC2)C1C (configuration not stated)	inactive	–
CNc1ncnc2ccc(-c3cccc(OC)c3)cc12	–	inactive: -3.96% [at 0.501 µM]
COc1ccc(C(C)(C)C)cc1NC(=O)c1cc(S(=O)(=O)N(C)C)ccc1N1CCCC1	inconclusive: 39.8 µM [inhibitor, partial curve, poor fit]	–
O=C(Nc1ccc(N2CCCC2)cc1)c1cc(Cl)ccc1Cl	inconclusive: 79.4 µM [inhibitor, partial curve, poor fit]	–
O=S(=O)(Nc1ccccc1Cl)c1cc(NC(=S)NCCN2CCOCC2)ccc1Cl	inactive	–
COc1cc(/C=N/NC(=O)c2ccncc2)ccc1OCC(=O)Nc1ccc(C)c(C)c1	inactive	–
C=Cn1cc[n+](CC(=O)c2ccc(Cl)cc2)c1	inconclusive: 100 µM [inhibitor, single point]	–
CCN(C(=O)c1cc2c(Cl)nc3ccccc3c2s1)c1cccc(Cl)c1	inactive	–
CC(=O)Nc1nonc1NC(=O)CSc1ncn[nH]1	inconclusive: 6.31 µM [inhibitor, partial curve, poor fit]	–
CC(=O)NS(=O)(=O)c1ccc(NC(=O)CSc2ccc(C)cc2)cc1	–	inconclusive: -74.6% [inhibitor]
O=C(NC1CCCC1)c1ccc(CSc2nc3ccncc3n2Cc2ccccc2F)cc1	inconclusive: 14.1 µM [inhibitor, partial curve]	–
Cc1cc(-c2ccccc2)nc(N(C)NC(=O)c2ccc(Cl)cc2)c1S(C)(=O)=O	inconclusive: 89.1 µM [inhibitor, partial curve, poor fit]	–
